Paper PMC12820563, “FoxP3 forms a head-to-head dimer in vivo and stabilizes its multimerization on adjacent microsatellites”
The other results are listed elsewhere or left out.

Each sequence was assayed against T1, MBP-FoxP1dN (Mus musculus, UniProt P58462 326-579) (assay: PD-seq (MBP pull-down with sequencing); 20 mM Tris-HCl pH 7.5, 100 mM NaCl, 1.5 mM MgCl2, 0.4 uM protein, 0.1 uM dsDNA library, 30 min, room temperature, amylose pull-down; high values mean tight binding). Details: protein: recombinant; tags: His6-MBP; chain copies: 2; dsDNA, one strand shown.
T1 sequence: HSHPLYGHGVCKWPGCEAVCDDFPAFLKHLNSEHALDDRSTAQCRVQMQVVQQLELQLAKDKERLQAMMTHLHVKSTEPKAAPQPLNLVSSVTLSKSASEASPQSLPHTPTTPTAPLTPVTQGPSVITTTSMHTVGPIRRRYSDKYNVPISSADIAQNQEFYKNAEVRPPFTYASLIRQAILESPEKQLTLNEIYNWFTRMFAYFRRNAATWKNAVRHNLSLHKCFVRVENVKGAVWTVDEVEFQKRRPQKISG
Outline: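 In Tris pH 7.5 buffer with NaCl and MgCl2, 0.4 µM His6-MBP-tagged mouse FoxP3 or FoxP1 fragment lacking the N-terminus, from E. coli, met 0.1 µM Klenow-filled double-stranded degenerate DNA library for 30 min at room temperature. Three washes on amylose resin followed capture of the complexes, then proteinase K release of DNA, PCR barcoding and Illumina sequencing. Binding is taken as pooled-replicate reads-per-million enrichment of pull-down relative to input.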

| Sequence | binding signal |
| --- | --- |
| GATGATTGTTCTCCCAGCTGATGAATTCGGGAATTCGAGTAAACAAATTTTCCTAATCTTTCTGTTCAAGCGCCATCTAC | 0.845 RPM ratio (pull-down/input) |
| GATGATTGTTCTCCCAGCTGATGAATTCGCTGCATCGAGTAAACAAATTTTCCTAATCTTTCTGTTCAAGCGCCATCTAC | 1.06 RPM ratio (pull-down/input) |
| GATGATTGTTCTCCCAGCTGATGAATTATCAGTCTCGAGTAAACAAATTTTCCTAATCTTTCTGTTCAAGCGCCATCTAC | 0.945 RPM ratio (pull-down/input) |
| GATGATTGTTCTCCCAGCTGATGAATTGAAGCCCTCGAGTAAACAAATTTTCCTAATCTTTCTGTTCAAGCGCCATCTAC | 0.676 RPM ratio (pull-down/input) |
| GATGATTGTTCTCCCAGCTGATGAATTTAAGGATTCGAGTAAACAAATTTTCCTAATCTTTCTGTTCAAGCGCCATCTAC | 0.931 RPM ratio (pull-down/input) |
| GATGATTGTTCTCCCAGCTGATGAATTTCCACTATCGAGTAAACAAATTTTCCTAATCTTTCTGTTCAAGCGCCATCTAC | 0.933 RPM ratio (pull-down/input) |
| GATGATTGTTCTCCCAGCTGATGAATTTTAGGTGTCGAGTAAACAAATTTTCCTAATCTTTCTGTTCAAGCGCCATCTAC | 0.902 RPM ratio (pull-down/input) |
| GATGATTGTTCTCCCAGCTGATGAATTCGAAAAATCGAGTAAACAAATTTTCCTAATCTTTCTGTTCAAGCGCCATCTAC | 1.02 RPM ratio (pull-down/input) |
| GATGATTGTTCTCCCAGCTGATGAATTGGCGTCGTCGAGTAAACAAATTTTCCTAATCTTTCTGTTCAAGCGCCATCTAC | 0.851 RPM ratio (pull-down/input) |
| GATGATTGTTCTCCCAGCTGATGAATTACGGCTTTCGAGTAAACAAATTTTCCTAATCTTTCTGTTCAAGCGCCATCTAC | 0.992 RPM ratio (pull-down/input) |
| GATGATTGTTCTCCCAGCTGATGAATTAATTTTATCGAGTAAACAAATTTTCCTAATCTTTCTGTTCAAGCGCCATCTAC | 0.907 RPM ratio (pull-down/input) |
| GATGATTGTTCTCCCAGCTGATGAATTCTTAGGTTCGAGTAAACAAATTTTCCTAATCTTTCTGTTCAAGCGCCATCTAC | 0.874 RPM ratio (pull-down/input) |
| GATGATTGTTCTCCCAGCTGATGAATTCAACCTATCGAGTAAACAAATTTTCCTAATCTTTCTGTTCAAGCGCCATCTAC | 0.932 RPM ratio (pull-down/input) |
| GATGATTGTTCTCCCAGCTGATGAATTTTAGATGTCGAGTAAACAAATTTTCCTAATCTTTCTGTTCAAGCGCCATCTAC | 0.977 RPM ratio (pull-down/input) |
| GATGATTGTTCTCCCAGCTGATGAATTGTGTTTATCGAGTAAACAAATTTTCCTAATCTTTCTGTTCAAGCGCCATCTAC | 2.92 RPM ratio (pull-down/input) |
| GATGATTGTTCTCCCAGCTGATGAATTTAATCACTCGAGTAAACAAATTTTCCTAATCTTTCTGTTCAAGCGCCATCTAC | 1.02 RPM ratio (pull-down/input) |
| GATGATTGTTCTCCCAGCTGATGAATTGGTAACTTCGAGTAAACAAATTTTCCTAATCTTTCTGTTCAAGCGCCATCTAC | 0.983 RPM ratio (pull-down/input) |
| GATGATTGTTCTCCCAGCTGATGAATTCTTGGTATCGAGTAAACAAATTTTCCTAATCTTTCTGTTCAAGCGCCATCTAC | 1 RPM ratio (pull-down/input) |
| GATGATTGTTCTCCCAGCTGATGAATTGGCAGGTTCGAGTAAACAAATTTTCCTAATCTTTCTGTTCAAGCGCCATCTAC | 0.781 RPM ratio (pull-down/input) |
| GATGATTGTTCTCCCAGCTGATGAATTCTTCCGCTCGAGTAAACAAATTTTCCTAATCTTTCTGTTCAAGCGCCATCTAC | 0.839 RPM ratio (pull-down/input) |
| GATGATTGTTCTCCCAGCTGATGAATTAAATCGATCGAGTAAACAAATTTTCCTAATCTTTCTGTTCAAGCGCCATCTAC | 0.947 RPM ratio (pull-down/input) |

| Sequence | binding signal |
| --- | --- |
| GATGATTGTTCTCCCAGCTGATGAATTTATAGGCTCGAGTAAACAAATTTTCCTAATCTTTCTGTTCAAGCGCCATCTAC | 0.927 RPM ratio (pull-down/input) |
| GATGATTGTTCTCCCAGCTGATGAATTGTCAGTCTCGAGTAAACAAATTTTCCTAATCTTTCTGTTCAAGCGCCATCTAC | 0.947 RPM ratio (pull-down/input) |
| GATGATTGTTCTCCCAGCTGATGAATTAATGGACTCGAGTAAACAAATTTTCCTAATCTTTCTGTTCAAGCGCCATCTAC | 0.859 RPM ratio (pull-down/input) |
| GATGATTGTTCTCCCAGCTGATGAATTAGTTGAATCGAGTAAACAAATTTTCCTAATCTTTCTGTTCAAGCGCCATCTAC | 1.01 RPM ratio (pull-down/input) |
| GATGATTGTTCTCCCAGCTGATGAATTAGTTGTCTCGAGTAAACAAATTTTCCTAATCTTTCTGTTCAAGCGCCATCTAC | 1.15 RPM ratio (pull-down/input) |
| GATGATTGTTCTCCCAGCTGATGAATTCGTCGTCTCGAGTAAACAAATTTTCCTAATCTTTCTGTTCAAGCGCCATCTAC | 0.867 RPM ratio (pull-down/input) |
| GATGATTGTTCTCCCAGCTGATGAATTATTACAATCGAGTAAACAAATTTTCCTAATCTTTCTGTTCAAGCGCCATCTAC | 1.49 RPM ratio (pull-down/input) |
| GATGATTGTTCTCCCAGCTGATGAATTAAGGGGTTCGAGTAAACAAATTTTCCTAATCTTTCTGTTCAAGCGCCATCTAC | 0.849 RPM ratio (pull-down/input) |
| GATGATTGTTCTCCCAGCTGATGAATTACCAATATCGAGTAAACAAATTTTCCTAATCTTTCTGTTCAAGCGCCATCTAC | 1.79 RPM ratio (pull-down/input) |
| GATGATTGTTCTCCCAGCTGATGAATTGCCCGGCTCGAGTAAACAAATTTTCCTAATCTTTCTGTTCAAGCGCCATCTAC | 0.786 RPM ratio (pull-down/input) |
| GATGATTGTTCTCCCAGCTGATGAATTAGGGTGTTCGAGTAAACAAATTTTCCTAATCTTTCTGTTCAAGCGCCATCTAC | 0.925 RPM ratio (pull-down/input) |
| GATGATTGTTCTCCCAGCTGATGAATTTTAGATCTCGAGTAAACAAATTTTCCTAATCTTTCTGTTCAAGCGCCATCTAC | 0.866 RPM ratio (pull-down/input) |
| GATGATTGTTCTCCCAGCTGATGAATTTCCGTCATCGAGTAAACAAATTTTCCTAATCTTTCTGTTCAAGCGCCATCTAC | 1 RPM ratio (pull-down/input) |
| GATGATTGTTCTCCCAGCTGATGAATTCTGCTCGTCGAGTAAACAAATTTTCCTAATCTTTCTGTTCAAGCGCCATCTAC | 0.836 RPM ratio (pull-down/input) |
| GATGATTGTTCTCCCAGCTGATGAATTGTATTCTTCGAGTAAACAAATTTTCCTAATCTTTCTGTTCAAGCGCCATCTAC | 1.26 RPM ratio (pull-down/input) |
| GATGATTGTTCTCCCAGCTGATGAATTAGTTAGGTCGAGTAAACAAATTTTCCTAATCTTTCTGTTCAAGCGCCATCTAC | 0.922 RPM ratio (pull-down/input) |
| GATGATTGTTCTCCCAGCTGATGAATTGGCAATCTCGAGTAAACAAATTTTCCTAATCTTTCTGTTCAAGCGCCATCTAC | 0.856 RPM ratio (pull-down/input) |
| GATGATTGTTCTCCCAGCTGATGAATTTGCAGCTTCGAGTAAACAAATTTTCCTAATCTTTCTGTTCAAGCGCCATCTAC | 0.912 RPM ratio (pull-down/input) |
| GATGATTGTTCTCCCAGCTGATGAATTTCAGTACTCGAGTAAACAAATTTTCCTAATCTTTCTGTTCAAGCGCCATCTAC | 0.776 RPM ratio (pull-down/input) |
| GATGATTGTTCTCCCAGCTGATGAATTGTACAACTCGAGTAAACAAATTTTCCTAATCTTTCTGTTCAAGCGCCATCTAC | 1.03 RPM ratio (pull-down/input) |
| GATGATTGTTCTCCCAGCTGATGAATTGTACGGATCGAGTAAACAAATTTTCCTAATCTTTCTGTTCAAGCGCCATCTAC | 0.867 RPM ratio (pull-down/input) |

| Sequence | binding signal |
| --- | --- |
| GATGATTGTTCTCCCAGCTGATGAATTAGTCACATCGAGTAAACAAATTTTCCTAATCTTTCTGTTCAAGCGCCATCTAC | 1.16 RPM ratio (pull-down/input) |
| GATGATTGTTCTCCCAGCTGATGAATTAGCCACATCGAGTAAACAAATTTTCCTAATCTTTCTGTTCAAGCGCCATCTAC | 1.01 RPM ratio (pull-down/input) |
| GATGATTGTTCTCCCAGCTGATGAATTACCCAGCTCGAGTAAACAAATTTTCCTAATCTTTCTGTTCAAGCGCCATCTAC | 0.917 RPM ratio (pull-down/input) |
| GATGATTGTTCTCCCAGCTGATGAATTCTCAAGGTCGAGTAAACAAATTTTCCTAATCTTTCTGTTCAAGCGCCATCTAC | 0.736 RPM ratio (pull-down/input) |
| GATGATTGTTCTCCCAGCTGATGAATTTATCGCCTCGAGTAAACAAATTTTCCTAATCTTTCTGTTCAAGCGCCATCTAC | 1.09 RPM ratio (pull-down/input) |
| GATGATTGTTCTCCCAGCTGATGAATTGCGGACCTCGAGTAAACAAATTTTCCTAATCTTTCTGTTCAAGCGCCATCTAC | 0.95 RPM ratio (pull-down/input) |
| GATGATTGTTCTCCCAGCTGATGAATTTACCTTATCGAGTAAACAAATTTTCCTAATCTTTCTGTTCAAGCGCCATCTAC | 1.41 RPM ratio (pull-down/input) |
| GATGATTGTTCTCCCAGCTGATGAATTGGCTCAATCGAGTAAACAAATTTTCCTAATCTTTCTGTTCAAGCGCCATCTAC | 0.972 RPM ratio (pull-down/input) |
| GATGATTGTTCTCCCAGCTGATGAATTTTGAGCATCGAGTAAACAAATTTTCCTAATCTTTCTGTTCAAGCGCCATCTAC | 1.18 RPM ratio (pull-down/input) |
| GATGATTGTTCTCCCAGCTGATGAATTCGAAAAGTCGAGTAAACAAATTTTCCTAATCTTTCTGTTCAAGCGCCATCTAC | 0.816 RPM ratio (pull-down/input) |
| GATGATTGTTCTCCCAGCTGATGAATTTCGCCCGTCGAGTAAACAAATTTTCCTAATCTTTCTGTTCAAGCGCCATCTAC | 0.834 RPM ratio (pull-down/input) |
| GATGATTGTTCTCCCAGCTGATGAATTATTGGATTCGAGTAAACAAATTTTCCTAATCTTTCTGTTCAAGCGCCATCTAC | 1.05 RPM ratio (pull-down/input) |
| GATGATTGTTCTCCCAGCTGATGAATTGCTTCTCTCGAGTAAACAAATTTTCCTAATCTTTCTGTTCAAGCGCCATCTAC | 1.03 RPM ratio (pull-down/input) |
| GATGATTGTTCTCCCAGCTGATGAATTTTTTTCTTCGAGTAAACAAATTTTCCTAATCTTTCTGTTCAAGCGCCATCTAC | 0.877 RPM ratio (pull-down/input) |
| GATGATTGTTCTCCCAGCTGATGAATTCGGTTCGTCGAGTAAACAAATTTTCCTAATCTTTCTGTTCAAGCGCCATCTAC | 0.853 RPM ratio (pull-down/input) |
| GATGATTGTTCTCCCAGCTGATGAATTGGGTCGCTCGAGTAAACAAATTTTCCTAATCTTTCTGTTCAAGCGCCATCTAC | 0.828 RPM ratio (pull-down/input) |
| GATGATTGTTCTCCCAGCTGATGAATTTCCAGATTCGAGTAAACAAATTTTCCTAATCTTTCTGTTCAAGCGCCATCTAC | 0.826 RPM ratio (pull-down/input) |
| GATGATTGTTCTCCCAGCTGATGAATTGACTGGGTCGAGTAAACAAATTTTCCTAATCTTTCTGTTCAAGCGCCATCTAC | 0.86 RPM ratio (pull-down/input) |
| GATGATTGTTCTCCCAGCTGATGAATTGCAAGAGTCGAGTAAACAAATTTTCCTAATCTTTCTGTTCAAGCGCCATCTAC | 1.05 RPM ratio (pull-down/input) |
| GATGATTGTTCTCCCAGCTGATGAATTGACCACGTCGAGTAAACAAATTTTCCTAATCTTTCTGTTCAAGCGCCATCTAC | 0.941 RPM ratio (pull-down/input) |
| GATGATTGTTCTCCCAGCTGATGAATTAGCGACCTCGAGTAAACAAATTTTCCTAATCTTTCTGTTCAAGCGCCATCTAC | 0.762 RPM ratio (pull-down/input) |
